According to publication PMC12041881, “Tailored phenyl ureas eradicate drug-resistant Mycobacterium tuberculosis by targeting mycolic acid cell wall assembly” (Chemical Science, 2025):
Read-outs that look alike come from different tables or passages of the source.

Assays:
Type in all cases: binding
[1] = molecular target: probe-bound proteins in M. tuberculosis H37Ra cells (Mycobacterium tuberculosis, UniProt O33283); conditions: protein ephG (O33283); 5µM vs noUV
[2] = molecular target: probe-bound proteins in M. tuberculosis H37Ra cells (Mycobacterium tuberculosis, UniProt O53368); conditions: protein sdhC (O53368); 5µM vs noUV
[3] = molecular target: probe-bound proteins in M. tuberculosis H37Ra cells (Mycobacterium tuberculosis, UniProt O53578); conditions: protein accD4 (O53578); 5µM vs noUV
[4] = molecular target: probe-bound proteins in M. tuberculosis H37Ra cells (Mycobacterium tuberculosis, UniProt O53900); conditions: protein Rv0987 (O53900); 5µM vs noUV
[5] = molecular target: probe-bound proteins in M. tuberculosis H37Ra cells (Mycobacterium tuberculosis, UniProt P96886); conditions: protein accE5 (P96886); 5µM vs noUV
[6] = molecular target: probe-bound proteins in M. tuberculosis H37Ra cells (Mycobacterium tuberculosis, UniProt P9WIP9); conditions: protein hbhA (P9WIP9, Heparin-binding hemagglutinin); 5µM vs noUV
[7] = molecular target: probe-bound proteins in M. tuberculosis H37Ra cells (Mycobacterium tuberculosis, UniProt P9WIT3); conditions: protein Rv1771 (P9WIT3, L-gulono-1,4-lactone dehydrogenase); 5µM vs noUV
[8] = molecular target: probe-bound proteins in M. tuberculosis H37Ra cells (Mycobacterium tuberculosis, UniProt P9WIW1); conditions: protein nuoL (P9WIW1, NADH-quinone oxidoreductase subunit L); 5µM vs noUV
[9] = molecular target: probe-bound proteins in M. tuberculosis H37Ra cells (Mycobacterium tuberculosis, UniProt P9WJV1); conditions: protein mmpL5 (P9WJV1, Siderophore exporter MmpL5); 5µM vs noUV
[10] = molecular target: probe-bound proteins in M. tuberculosis H37Ra cells (Mycobacterium tuberculosis, UniProt P9WJV5); conditions: for MmpL3 enrichment, Student's T-test Difference DM-JB-68 -5µM vs noUV: 5 µM probe vs UV-control, Mtb H37Ra
[11] = molecular target: probe-bound proteins in M. tuberculosis H37Ra cells (Mycobacterium tuberculosis, UniProt P9WKF5); conditions: protein adk (P9WKF5, Adenylate kinase); 5µM vs noUV
[12] = molecular target: probe-bound proteins in M. tuberculosis H37Ra cells (Mycobacterium tuberculosis, UniProt P9WKN3); conditions: protein Rv0955 (P9WKN3, Uncharacterized protein Rv0955); 5µM vs noUV
[13] = molecular target: probe-bound proteins in M. tuberculosis H37Ra cells (Mycobacterium tuberculosis, UniProt P9WKQ7); conditions: protein Rv0883c (P9WKQ7, Uncharacterized protein Rv0883c); 5µM vs noUV
[14] = molecular target: probe-bound proteins in M. tuberculosis H37Ra cells (Mycobacterium tuberculosis, UniProt P9WLY1); conditions: protein Rv1417 (P9WLY1, Uncharacterized protein Rv1417); 5µM vs noUV
[15] = molecular target: probe-bound proteins in M. tuberculosis H37Ra cells (Mycobacterium tuberculosis, UniProt P9WMR7); conditions: protein Rv1341 (P9WMR7, dITP/XTP pyrophosphatase); 5µM vs noUV
[16] = molecular target: probe-bound proteins in M. tuberculosis H37Ra cells (Mycobacterium tuberculosis, UniProt P9WMZ9); conditions: protein Rv2181 (P9WMZ9, Polyprenol-phosphate-mannose-dependent alpha-(1-2)-phosphatidylinositol mannoside mannosyltransferase); 5µM vs noUV
[17] = molecular target: probe-bound proteins in M. tuberculosis H37Ra cells (Mycobacterium tuberculosis, UniProt P9WP09); conditions: protein Rv0364 (P9WP09, Uncharacterized membrane protein Rv0364); 5µM vs noUV
[18] = molecular target: probe-bound proteins in M. tuberculosis H37Ra cells (Mycobacterium tuberculosis, UniProt P9WPM9); conditions: protein cyp135B1 (P9WPM9, Putative cytochrome P450 135B1); 5µM vs noUV
[19] = molecular target: probe-bound proteins in M. tuberculosis H37Ra cells (Mycobacterium tuberculosis, UniProt P9WQ99); conditions: protein amiA2 (P9WQ99, Putative amidase AmiA2); 5µM vs noUV
[20] = molecular target: probe-bound proteins in M. tuberculosis H37Ra cells (Mycobacterium tuberculosis, UniProt P9WQA7); conditions: protein Rv2298 (P9WQA7, Uncharacterized oxidoreductase Rv2298); 5µM vs noUV
Chain of UniProt P9WQA7 (P9WQA7 whole entry): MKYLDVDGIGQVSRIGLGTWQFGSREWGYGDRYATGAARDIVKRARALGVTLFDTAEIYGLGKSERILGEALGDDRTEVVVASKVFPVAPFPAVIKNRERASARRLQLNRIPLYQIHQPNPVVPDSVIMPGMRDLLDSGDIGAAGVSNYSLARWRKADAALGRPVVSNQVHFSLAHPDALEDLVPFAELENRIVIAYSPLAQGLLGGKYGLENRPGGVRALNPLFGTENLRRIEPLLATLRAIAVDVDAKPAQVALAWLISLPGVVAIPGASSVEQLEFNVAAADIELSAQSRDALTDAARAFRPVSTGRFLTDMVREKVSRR

Chain of UniProt P9WJV5 (P9WJV5 whole entry): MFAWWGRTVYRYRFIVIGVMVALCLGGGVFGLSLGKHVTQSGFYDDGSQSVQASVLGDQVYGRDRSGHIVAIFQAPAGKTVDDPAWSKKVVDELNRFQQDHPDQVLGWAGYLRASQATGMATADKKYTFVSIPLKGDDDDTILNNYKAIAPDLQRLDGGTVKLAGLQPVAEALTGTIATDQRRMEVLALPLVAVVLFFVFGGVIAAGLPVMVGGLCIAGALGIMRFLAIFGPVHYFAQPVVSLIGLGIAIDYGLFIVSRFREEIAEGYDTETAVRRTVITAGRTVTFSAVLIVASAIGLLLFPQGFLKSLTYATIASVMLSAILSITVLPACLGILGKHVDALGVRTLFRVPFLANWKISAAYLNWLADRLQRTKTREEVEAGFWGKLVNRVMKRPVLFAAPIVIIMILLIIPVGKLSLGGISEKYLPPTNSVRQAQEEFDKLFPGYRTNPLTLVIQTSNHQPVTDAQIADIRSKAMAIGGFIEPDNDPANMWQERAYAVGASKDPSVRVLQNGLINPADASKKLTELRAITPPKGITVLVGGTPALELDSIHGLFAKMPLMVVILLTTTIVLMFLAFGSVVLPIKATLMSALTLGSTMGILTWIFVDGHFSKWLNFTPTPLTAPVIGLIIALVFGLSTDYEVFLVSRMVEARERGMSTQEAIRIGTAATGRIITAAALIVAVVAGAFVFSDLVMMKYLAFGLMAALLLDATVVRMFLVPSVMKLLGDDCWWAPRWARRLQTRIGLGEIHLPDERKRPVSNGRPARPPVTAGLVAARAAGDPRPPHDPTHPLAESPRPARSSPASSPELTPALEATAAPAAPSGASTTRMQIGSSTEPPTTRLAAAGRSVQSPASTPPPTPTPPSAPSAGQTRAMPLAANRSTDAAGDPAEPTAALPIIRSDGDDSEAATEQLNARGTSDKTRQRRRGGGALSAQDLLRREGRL
Chain of UniProt P9WIP9 (P9WIP9 whole entry): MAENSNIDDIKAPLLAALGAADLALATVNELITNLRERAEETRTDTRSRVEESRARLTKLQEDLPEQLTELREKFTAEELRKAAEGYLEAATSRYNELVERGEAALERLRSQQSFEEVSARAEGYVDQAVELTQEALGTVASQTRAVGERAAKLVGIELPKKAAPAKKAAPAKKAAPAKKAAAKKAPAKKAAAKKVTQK
Chain of UniProt P9WKQ7 (P9WKQ7 whole entry): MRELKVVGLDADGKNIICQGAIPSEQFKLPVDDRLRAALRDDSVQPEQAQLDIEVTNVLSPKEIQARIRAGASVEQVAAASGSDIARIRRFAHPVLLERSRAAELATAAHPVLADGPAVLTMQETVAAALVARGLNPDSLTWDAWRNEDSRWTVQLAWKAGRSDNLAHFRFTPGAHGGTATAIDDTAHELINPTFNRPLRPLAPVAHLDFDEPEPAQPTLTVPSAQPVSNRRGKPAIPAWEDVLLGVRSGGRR
Chain of UniProt P9WPM9 (P9WPM9 whole entry): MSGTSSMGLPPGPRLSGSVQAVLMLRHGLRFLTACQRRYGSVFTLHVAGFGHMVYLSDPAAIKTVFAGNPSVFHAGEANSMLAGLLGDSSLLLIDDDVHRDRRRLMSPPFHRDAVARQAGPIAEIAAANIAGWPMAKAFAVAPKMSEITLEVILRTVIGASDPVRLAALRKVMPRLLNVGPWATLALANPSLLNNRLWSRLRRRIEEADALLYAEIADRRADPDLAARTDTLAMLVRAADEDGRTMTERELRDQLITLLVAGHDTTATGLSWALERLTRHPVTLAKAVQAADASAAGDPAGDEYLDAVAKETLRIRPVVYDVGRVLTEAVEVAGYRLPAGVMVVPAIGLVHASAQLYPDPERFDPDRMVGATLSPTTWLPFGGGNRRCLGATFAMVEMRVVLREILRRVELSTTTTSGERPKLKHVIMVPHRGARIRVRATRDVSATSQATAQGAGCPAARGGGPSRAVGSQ
Chain of UniProt P9WIT3 (P9WIT3 whole entry): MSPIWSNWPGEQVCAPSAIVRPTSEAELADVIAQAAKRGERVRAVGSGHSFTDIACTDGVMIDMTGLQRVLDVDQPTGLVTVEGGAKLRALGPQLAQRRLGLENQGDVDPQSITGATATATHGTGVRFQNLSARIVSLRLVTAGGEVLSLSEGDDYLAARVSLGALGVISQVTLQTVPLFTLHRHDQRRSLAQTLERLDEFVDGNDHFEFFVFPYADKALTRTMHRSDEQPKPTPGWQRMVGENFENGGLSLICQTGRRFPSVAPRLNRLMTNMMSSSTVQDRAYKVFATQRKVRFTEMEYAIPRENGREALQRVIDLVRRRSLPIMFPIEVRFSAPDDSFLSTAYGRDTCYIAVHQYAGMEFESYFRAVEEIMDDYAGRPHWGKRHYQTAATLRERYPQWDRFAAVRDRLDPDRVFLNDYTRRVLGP
Chain of UniProt O53578 (O53578 whole entry): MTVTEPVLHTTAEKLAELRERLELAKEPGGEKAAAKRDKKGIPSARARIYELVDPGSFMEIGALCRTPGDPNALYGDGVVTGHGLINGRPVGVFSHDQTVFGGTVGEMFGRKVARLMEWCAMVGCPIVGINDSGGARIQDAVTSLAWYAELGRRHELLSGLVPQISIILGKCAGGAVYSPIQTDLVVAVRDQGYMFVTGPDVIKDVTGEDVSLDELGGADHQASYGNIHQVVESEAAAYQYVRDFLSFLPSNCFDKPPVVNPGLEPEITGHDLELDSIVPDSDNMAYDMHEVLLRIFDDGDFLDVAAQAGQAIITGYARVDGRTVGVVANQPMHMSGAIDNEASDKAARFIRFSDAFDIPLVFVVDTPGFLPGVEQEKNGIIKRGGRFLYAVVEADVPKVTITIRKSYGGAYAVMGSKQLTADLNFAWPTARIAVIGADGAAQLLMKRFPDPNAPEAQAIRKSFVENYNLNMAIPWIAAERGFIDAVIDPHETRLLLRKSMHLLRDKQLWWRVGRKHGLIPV
Chain of UniProt P96886 (P96886 whole entry): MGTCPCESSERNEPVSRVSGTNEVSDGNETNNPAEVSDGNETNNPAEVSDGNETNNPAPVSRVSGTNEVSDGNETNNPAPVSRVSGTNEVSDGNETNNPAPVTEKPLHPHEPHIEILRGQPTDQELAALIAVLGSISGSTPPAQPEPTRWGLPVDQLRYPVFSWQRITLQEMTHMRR
Chain of UniProt O33283 (O33283 whole entry): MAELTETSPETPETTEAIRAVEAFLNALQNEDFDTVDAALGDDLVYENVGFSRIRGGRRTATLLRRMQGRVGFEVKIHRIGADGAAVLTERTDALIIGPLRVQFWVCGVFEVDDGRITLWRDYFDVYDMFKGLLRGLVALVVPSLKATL
Chain of UniProt O53900 (O53900 whole entry): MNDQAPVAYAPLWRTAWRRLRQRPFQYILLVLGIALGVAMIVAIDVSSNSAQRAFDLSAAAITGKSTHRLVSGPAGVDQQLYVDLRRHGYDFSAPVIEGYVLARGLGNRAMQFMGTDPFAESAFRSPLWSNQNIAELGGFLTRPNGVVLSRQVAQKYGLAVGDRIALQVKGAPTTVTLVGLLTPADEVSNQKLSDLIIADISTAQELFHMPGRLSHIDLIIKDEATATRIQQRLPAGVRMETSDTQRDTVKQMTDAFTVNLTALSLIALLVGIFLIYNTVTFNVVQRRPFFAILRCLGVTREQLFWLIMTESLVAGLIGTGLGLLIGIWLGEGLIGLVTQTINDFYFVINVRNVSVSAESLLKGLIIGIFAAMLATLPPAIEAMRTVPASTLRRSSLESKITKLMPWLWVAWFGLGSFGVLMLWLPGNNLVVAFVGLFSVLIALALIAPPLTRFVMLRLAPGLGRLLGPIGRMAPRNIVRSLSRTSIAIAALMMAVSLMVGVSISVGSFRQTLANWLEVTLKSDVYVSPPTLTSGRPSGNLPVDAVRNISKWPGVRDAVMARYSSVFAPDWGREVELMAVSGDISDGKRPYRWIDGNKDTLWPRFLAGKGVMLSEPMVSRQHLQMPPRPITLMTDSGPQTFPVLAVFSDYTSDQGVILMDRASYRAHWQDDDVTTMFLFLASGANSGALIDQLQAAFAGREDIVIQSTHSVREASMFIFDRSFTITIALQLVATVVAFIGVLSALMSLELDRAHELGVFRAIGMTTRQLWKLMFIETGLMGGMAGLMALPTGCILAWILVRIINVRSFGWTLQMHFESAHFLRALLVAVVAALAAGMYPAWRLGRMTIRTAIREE
Chain of UniProt P9WLY1 (P9WLY1 whole entry): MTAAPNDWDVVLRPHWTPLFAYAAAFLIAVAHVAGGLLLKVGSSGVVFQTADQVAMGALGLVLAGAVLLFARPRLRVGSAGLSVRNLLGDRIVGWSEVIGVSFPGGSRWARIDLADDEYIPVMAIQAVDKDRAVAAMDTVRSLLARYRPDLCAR
Chain of UniProt P9WP09 (P9WP09 whole entry): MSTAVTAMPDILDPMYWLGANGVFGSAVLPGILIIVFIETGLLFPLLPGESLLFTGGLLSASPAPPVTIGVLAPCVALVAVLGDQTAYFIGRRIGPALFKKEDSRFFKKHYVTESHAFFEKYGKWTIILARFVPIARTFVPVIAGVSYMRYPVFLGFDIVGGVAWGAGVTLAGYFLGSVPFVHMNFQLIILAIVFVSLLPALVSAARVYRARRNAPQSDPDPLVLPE
Chain of UniProt P9WKF5 (P9WKF5 whole entry): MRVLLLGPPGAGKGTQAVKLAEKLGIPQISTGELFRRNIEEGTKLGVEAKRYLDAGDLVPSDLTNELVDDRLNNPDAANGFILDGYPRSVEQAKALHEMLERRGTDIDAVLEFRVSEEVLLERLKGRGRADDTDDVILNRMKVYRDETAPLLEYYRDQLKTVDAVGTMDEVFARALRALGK

C#CC1(NC(=O)Nc2ccc(N=[N+]=[N-])cc2)CCCCC1 [Compound 227-p1]
Student's T-test Difference DM-JB-68 -5µM_DM-JB-68 -5µM_noUV [1]: -0.1072
Student's T-test Difference DM-JB-68 -5µM_DM-JB-68 -5µM_noUV [2]: -0.436
Student's T-test Difference DM-JB-68 -5µM_DM-JB-68 -5µM_noUV [3]: 0.3579
Student's T-test Difference DM-JB-68 -5µM_DM-JB-68 -5µM_noUV [4]: -0.2913
Student's T-test Difference DM-JB-68 -5µM_DM-JB-68 -5µM_noUV [5]: 0.275
Student's T-test Difference DM-JB-68 -5µM_DM-JB-68 -5µM_noUV [6]: 0.1815
Student's T-test Difference DM-JB-68 -5µM_DM-JB-68 -5µM_noUV [7]: -0.2815
Student's T-test Difference DM-JB-68 -5µM_DM-JB-68 -5µM_noUV [8]: 0.1604
Student's T-test Difference DM-JB-68 -5µM_DM-JB-68 -5µM_noUV [9]: 0.3913
MmpL3 enrichment, Student's T-test Difference DM-JB-68 -5µM vs noUV [10]: could not be enriched
MmpL3 enrichment, Student's T-test Difference DM-JB-68 -5µM vs noUV ([10]; listed as DM-JB-68): -0.05077
Student's T-test Difference DM-JB-68 -5µM_DM-JB-68 -5µM_noUV ([10]; protein mmpL3 (P9WJV5, Trehalose monomycolate exporter MmpL3), 5µM vs noUV): -0.05077
Student's T-test Difference DM-JB-68 -5µM_DM-JB-68 -5µM_noUV [11]: 0.8044
Student's T-test Difference DM-JB-68 -5µM_DM-JB-68 -5µM_noUV [12]: 0.1139
Student's T-test Difference DM-JB-68 -5µM_DM-JB-68 -5µM_noUV [13]: -1.1407
Student's T-test Difference DM-JB-68 -5µM_DM-JB-68 -5µM_noUV [14]: 0.3491
Student's T-test Difference DM-JB-68 -5µM_DM-JB-68 -5µM_noUV [15]: 0.7533
Student's T-test Difference DM-JB-68 -5µM_DM-JB-68 -5µM_noUV [16]: 0.05102
Student's T-test Difference DM-JB-68 -5µM_DM-JB-68 -5µM_noUV [17]: 0.1089
Student's T-test Difference DM-JB-68 -5µM_DM-JB-68 -5µM_noUV [18]: -0.4919
Student's T-test Difference DM-JB-68 -5µM_DM-JB-68 -5µM_noUV [19]: 0.3344
Student's T-test Difference DM-JB-68 -5µM_DM-JB-68 -5µM_noUV [20]: -0.1827
